# Data reported in paper PMC6919601, “Identification of Plasmodium dipeptidyl aminopeptidase allosteric inhibitors by high throughput screening” (PLoS ONE, 2019).
# Screen size: about 110,000 compounds; about 230 (0.21%) showed an effect of 50% or more. This is one part of the list.
# Target: DPAP1 (Plasmodium falciparum, UniProt Q8IIJ9)
# Test: primary screen, percent inhibition; read by cleavage of a fluorogenic dipeptide substrate; higher = more effect of the substance
# Parameters: species or system P. falciparum D10 trophozoite lysates; single well
# 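Note: 30 min substrate incubation versus DMSO and 10 µM JCP410 controls.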
# DPAP1, sequence (Q8IIJ9 whole entry, looked up): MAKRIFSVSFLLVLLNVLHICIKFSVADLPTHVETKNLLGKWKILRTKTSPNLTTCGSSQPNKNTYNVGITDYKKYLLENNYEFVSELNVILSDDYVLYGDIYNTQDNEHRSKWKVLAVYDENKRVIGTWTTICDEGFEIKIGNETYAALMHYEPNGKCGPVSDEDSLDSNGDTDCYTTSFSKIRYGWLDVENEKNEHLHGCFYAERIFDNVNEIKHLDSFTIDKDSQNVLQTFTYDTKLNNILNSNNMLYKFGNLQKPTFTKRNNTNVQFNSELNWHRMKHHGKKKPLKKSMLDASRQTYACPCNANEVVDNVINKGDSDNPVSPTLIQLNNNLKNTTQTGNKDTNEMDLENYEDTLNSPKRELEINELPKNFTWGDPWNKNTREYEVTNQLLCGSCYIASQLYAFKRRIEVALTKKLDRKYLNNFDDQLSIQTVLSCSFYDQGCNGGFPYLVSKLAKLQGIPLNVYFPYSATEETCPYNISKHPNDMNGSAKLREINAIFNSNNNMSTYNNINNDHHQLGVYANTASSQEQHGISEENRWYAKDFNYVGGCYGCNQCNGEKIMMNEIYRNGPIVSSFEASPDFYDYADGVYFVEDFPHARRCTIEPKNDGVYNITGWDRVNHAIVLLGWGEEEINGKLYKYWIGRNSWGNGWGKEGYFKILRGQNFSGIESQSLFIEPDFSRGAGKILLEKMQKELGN
row,SMILES,% Inhibition @ 10 uM [%]
1,COc1ccc(OC)c(C2=NOC(C(=O)NC(C)(C)C)C2)c1 (stereo not shown),4.41
2,Cc1cc(=O)n2nc(N3CCC(C(=O)N4CCN(Cc5ccccc5)CC4)CC3)sc2n1,-0.281
3,OC1(C#CCN2CCOCC2)CCCCC1,3.16
4,O=c1c(-c2ccc(F)cc2)coc2c(O)c(O)ccc12,-14.6
5,CS(=O)(=O)c1sc2nc(-c3cccs3)cc(-c3ccccc3)c2c1N,64.2
6,O=C(NCc1ccccc1Cl)C1CCN(S(=O)(=O)N2CCOCC2)CC1,-1.34
7,CCC(C)NC(=O)c1cnn2c(C)c(Cc3c(C)cc(C)cc3C)c(C)nc12 (stereo not shown),1.16
8,S=C1NCN(Cc2ccccc2)CN1CC1CCCO1 (stereo not shown),-7.56
9,N#CC1=C(N)OC2=C(C(=O)CC(c3ccccc3)C2)C1c1ccc([N+](=O)[O-])cc1 (stereo not shown),-1.93
10,O=C(COc1ccccc1)Nc1cccnc1Cl,2.86
11,CSc1nc(C)c(C(=O)Nc2ccccc2)c(-c2ccco2)c1C#N,5.48
12,CCN(c1ccccc1)S(=O)(=O)c1ccc(NC(C)=O)cc1,4.57
13,CCCCC(=O)N[C@@H](CC1CCCCC1)C(=O)NCC#N,-3.49
14,CSC1=NSC2=NC(=O)/C(=C\c3cccn3-c3ccccc3)C(=N)N12,3.53
15,Cn1cc(CCC(=O)NCCCN2CCC(Cc3ccccc3)CC2)c2ccccc21,3.28
16,CCN(CC)CCNC(=O)C(NC(=O)c1ccc(C23CC4CC(CC(C4)C2)C3)cc1)C(C)C (stereo not shown),-2.49
17,CCc1ccc(OCC(=O)O/N=C(\N)c2ccncc2)cc1,0.147
18,Cc1ccnc(NC(=O)CCn2cnc3onc(-c4ccc(F)cc4)c3c2=O)c1,3.91
19,O=C1c2[nH]nc(-c3ccccc3O)c2C(c2cccc(O)c2)N1Cc1ccco1 (stereo not shown),3.62
20,CC(C)C[C@H](NC(=O)c1ccc(-c2ccc(Cl)cc2)cc1)C(=O)NCC#N,-3.24
21,O=C1CC(NCc2ccc(F)cc2)C(=O)N1c1ccc(Br)cc1 (stereo not shown),4.06
22,CC1=C(C(=O)Nc2cccc(C)n2)C(c2ccc(Cl)cc2)C2=C(O)CCCC2=N1 (stereo not shown),2.56
23,COc1cccc(OC)c1C(=O)Nc1ccc(C)c(Cl)c1,-2.6
24,CCCc1nn(-c2ccc(F)cc2)c(O)c1/C=N/CCCn1ccnc1,-1.24
25,Cc1ccccc1NC(=O)c1cccc(C(=O)Nc2ccccc2C)n1,-0.872

row,SMILES,% Inhibition @ 10 uM [%]
1,COc1cc(CN2CCN(Cc3ccc(C)cc3)CC2)cc(OC)c1,-1.49
2,Oc1nc(SCc2ccccc2)nc(O)c1Cc1ccccc1,-2.12
3,COc1ccc(S(=O)(=O)N2CCCC(C)C2)cc1OC (stereo not shown),5.85
4,CCOCCCNS(=O)(=O)c1ccc(NC(C)=O)cc1,-9.26
5,CN(Cc1ccco1)C(=O)c1noc2c1CSc1ccccc1-2,1.68
6,CN(C(=O)c1ccc(Br)cc1)c1ccccc1,-6.44
7,OC1(c2ccc(Br)cc2)CCN(Cc2c(F)cccc2Cl)CC1,-3.27
8,O=C1c2cccnc2C(=O)N1Cc1ccc(S(=O)(=O)NCCc2ccccc2)cc1,-2.65
9,CCCNC(=O)c1c(N)sc2c1CCCCC2,20.4
10,C=CCN1C(=O)N/C(=C/c2cc(Cl)c(OCc3ccccc3)c(OC)c2)C1=O,1.4
11,COC(=O)c1ccc(Oc2nc(N(C)C)nc(N(C)C)n2)cc1,2.94
12,COc1ccc(CCNC(=O)CNC(=S)N(Cc2ccccc2)Cc2cccs2)cc1OC,-3.94
13,CCOC(=O)c1c(CN(CC)CC)n(C)c2cc(Br)c(OC)cc12,-4.11
14,CC(c1ccccc1)N1C(=O)c2ccc(C(=O)Nc3cc(Cl)ccc3C(=O)O)cc2C1=O (stereo not shown),4.05
15,c1ccc(C2C3=C(CCCC3)Nc3ncnn32)cc1 (stereo not shown),4.09
16,CCCNC(=O)CCC(=O)n1ncc2ccccc21,-1.08
17,COc1cc(CN(C(=O)c2oc3ccc(C)cc3c2C)C2CCS(=O)(=O)C2)cc(OC)c1OC (stereo not shown),-5.08
18,CCOc1cc(C2C3=C(O)CCCC3=NC(C)=C2C(=O)Nc2ccccc2C)ccc1O (stereo not shown),-6.6
19,CC(Cc1ccc(F)cc1)N(CCO)Cc1ccccc1 (stereo not shown),-3.72
20,O=C1NC(=O)/C(=C\c2ccc(N3CCCC3)c(F)c2)S1,-4.52
21,CCC(C)(NC(=O)c1ccc2c(c1)OCO2)C(=O)NC1CCCCC1 (stereo not shown),5.85
22,N#CC1=C(N)N(c2nc[nH]n2)C2=C(C(=O)CC(c3ccccc3)C2)C1c1ccc(Cl)cc1 (stereo not shown),3.99
23,CCOC(=O)c1ccc2c(c1)c1c(n2-c2ccccc2)CCCC1,-1.66
24,COCCCNc1nc2c(S(=O)(=O)c3ccc(C)c(C)c3)nnn2c2ccccc12,-3.08
25,Cc1cc(-c2ccc(S(=O)(=O)NCCc3ccc(Cl)cc3)cc2)on1,-2.19

row,SMILES,% Inhibition @ 10 uM [%]
1,COCCNC(=O)Cn1ncn2nc(-c3ccc(OC)cc3)cc2c1=O,0.623
2,COc1ccc2nc(C)cc(C(=O)O)c2c1,3.15
3,COc1ccc(-c2cc(C(=O)O)c3ccccc3n2)c(F)c1,2.94
4,CCc1ccccc1NC(=O)CSc1ccc(C)cc1,3.05
5,CCOc1cc(/C=C2\SC(=O)N(CC(=O)Nc3ccccc3)C2=O)c(Br)cc1O,-6.83
6,Oc1c2c(nc3nc(NCc4ccccc4F)nn13)CCC2,1
7,O=C1CC(=O)N(Cc2ccc(F)cc2)C(=O)N1,-4.01
8,Cn1cc(NC(=O)NC2CCCCC2)c2ccccc2c1=O,-4.23
9,C=CCN1C(=O)C(Cc2ccc(Br)cc2)S/C1=N\N=C\c1ccco1 (stereo not shown),-0.053
10,O=C(CN1N=C(c2ccccc2)CCC1=O)NCc1ccccc1Cl,-6.75
11,CC(CCc1ccco1)NC(=O)Cn1ncc2c1-c1ccccc1OC2 (stereo not shown),2.6
12,NC(=O)CSc1nc2ccccc2c(=O)n1-c1cccc2ccccc12,-4.06
13,O=P(O)(O)COc1ccccc1P(=O)(c1ccccc1)c1ccccc1,1.52
14,Cc1cc(C)n(C(=O)CN(C)S(=O)(=O)c2ccc([N+](=O)[O-])cc2)n1,-0.0217
15,O=C(CCc1ccc(S(=O)(=O)NCc2ccccc2)cc1)NC1CCCCCC1,1.94
16,O=C(Nc1ccc(Cl)c(Cl)c1)Nc1ccccc1Cl,-1.62
17,Clc1ccccc1N1CCN(Cc2cccc(Cl)c2Cl)CC1,-4.5
18,CN(C)C(=O)/C(=C\c1ccccc1)NC(=O)c1ccccc1,-1.06
19,O=C1OC(c2ccc(Cl)c(Cl)c2)=N/C1=C\c1coc2ccccc2c1=O,-7.56
20,Cc1cccc(NC(=O)CN(c2cc(C)ccc2C)S(C)(=O)=O)c1,-6.77
21,CN(C)CCCNc1c2c(c(C#N)c3nc4ccccc4n13)CCC2,-4.33
22,O=C1NC(=O)/C(=C\c2cc(Br)ccc2O)N1,4.74
23,O=C(c1ccc(CNc2c(N3CCCC3)c(=O)c2=O)cc1)N1CCN(c2ccccn2)CC1,-0.447
24,CCN(CC)C(=O)CSc1c2c(nc3ccc(Cl)cc13)CCCC2,-6.89
25,NC(=O)c1c(NC(=O)COc2ccc(Cl)cc2Cl)sc2c1CCCC2,-0.303

row,SMILES,% Inhibition @ 10 uM [%]
1,CC1CCN(c2nc3c(c(=O)n(Cc4ccccc4)c(=O)n3C)n2Cc2ccccc2)CC1,0.279
2,COc1ccc(S(=O)(=O)NC(C)(C)C)cc1-c1nnc2c3ccccc3c(C)nn12,0.628
3,O=C(O)c1ccc(NC(=O)C2CCCCC2)cc1,-4.02
4,Cc1ccc(CNC(=O)CCc2nnc3n(CCCOC(C)C)c(=O)c4ccccc4n23)cc1,-5.05
5,Cc1ccc(NCC(O)Cn2c3ccccc3c3ccccc32)cc1 (stereo not shown),3.96
6,Cc1ccc2c(N)c(C(=O)c3ccc(Br)cc3)sc2n1,-5.61
7,CCC(C)NC(=O)C1CCN(S(=O)(=O)N2CCC3(CC2)OCCO3)CC1 (stereo not shown),0.514
8,Cc1ccc(C(=O)N/C(=C\c2ccc(-c3ccc(Cl)cc3)o2)C(=O)NCCO)cc1,-0.0267
9,COc1ccccc1N1CCN(C(=O)CN(C)S(=O)(=O)c2ccc(F)cc2)CC1,-11.7
10,Cc1ccc(N2CC(C(=O)Nc3ccc(F)c(F)c3)CC2=O)cc1 (stereo not shown),0.214
11,N#CCNC(=O)[C@H](CC1CCCCC1)NC(=O)c1ccc(-c2ccccn2)s1,-1.83
12,CC1(C)CC(=O)C2=C(C1)c1c(ccc3ccccc13)NC2c1ccc([N+](=O)[O-])cc1 (stereo not shown),2.55
13,O=C(c1cccn1-c1nnc(N2CCCCC2)s1)N1CCC(Cc2ccccc2)CC1,-2.5
14,Cc1ccc(Sc2c(C(=O)NCc3ccccn3)[nH]c3ccccc23)cc1,-3.93
15,Cc1nn2c3ccccc3n(C)c2c1C(=O)C(Cl)(Cl)Cl,0.997
16,COc1ccc(-c2onc(C)c2C)cc1S(=O)(=O)N1CCCC(C)C1 (stereo not shown),7.39
17,Cc1nn(C)c(N)c1-c1ccccc1,4.19
18,Clc1cccc(OCCN2CCCCC2)c1Cl,5.31
19,O=C(Cc1cccs1)Nc1ccccc1C(=O)O,6.12
20,Cc1ccc2nc(-c3cccc(NC(=O)c4ccccc4F)c3)oc2c1,-4.01
21,COc1ccccc1C1C(C(=O)c2ccccc2)=C(O)C(=O)N1c1nc(C)c(C)s1 (stereo not shown),-5.51
22,COc1ccc(CCCC(=O)Nc2cccc3ccccc23)cc1,-3.67
23,Cc1ccc(CNC(=O)[C@H]2O[C@@H]3OC(C)(C)O[C@@H]3[C@H]3OC(C)(C)O[C@H]32)cc1,-3.52
24,C=CCc1ccccc1OCC(O)CN1CCN(C)CC1 (stereo not shown),-1.07
25,CN(C)c1cccc2c(S(=O)(=O)NCC(=O)N[C@@H](Cc3ccc(F)cc3)C(=O)N[C@H](/C=C/S(=O)(=O)c3ccc(F)cc3)CCS(C)(=O)=O)cccc12,-4.72
